# The other results are listed elsewhere or left out. The full chains were built here from the parent and the listed change. Values near 0.05 are background.
# B1: TEV protease; numbered along this chain (parent)
# chain: MGESLFKGPRDYNPISSSICHLTNESDGHTTSLYGIGFGPFIITNKHLFRRNNGTLVVQSLHGVFKVKDTTTLQQHLVDGRDMIIIRMPKDFPPFPQKLKFREPQREERICLVTTNFQTKSMSSMVSDTSCTFPSGDGIFWKHWIQTKDGQCGSPLVSTRDGFIVGIHSASNFTNTNNYFTSVPKNFMELLTNQEAQQWVSGWRLNADSVLWGGHKVFMVKPEEPFQPVKEATQL
# Variants of: B1
# Experiment: raw area under fraction-flipped curve 0-4 h after induction (AUC4h, not background-subtracted), DNA-recorder readout of cleavage of the substrate (dimensionless); higher = more cleavage of the substrate by the protease variant
# Conditions: temperature: 34 °C; time window: 0-4 h after rhamnose induction
# Experimental: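 In vivo DNA recorder in E. coli TOP10(DE3) ΔrhaA at 34 °C. Each TEVp single-site mutant (parent TEVp 0) is paired with a single-site variant of the 7-mer TEVs (canonical ENLYFQ|S). The substrate sits between flexible linkers in a Bxb1-sfGFP-TEVs-SsrA fusion, so cleavage stabilises Bxb1 and speeds flipping of a recombination array, read by NGS. The value is the raw area under the fraction-flipped curve over 0-4 h after rhamnose induction (AUC4h), with ≥20 reads per time point. It is not background-subtracted; inactive controls average about 0.047.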
# 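Further: Bxb1 expression induced with 0.2% (w/v) L-rhamnose at OD600 near 0.5, cultures sampled hourly, flipped fraction per protease–substrate barcode pair counted by paired-end Illumina sequencing.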
variant,measurement,value
MGESLFKGPRDYNPISSSICHLTNESDGHTTSLYGIGFGPFIITNKHLFRRNNGTLVVQSLHGVFKVKDTTTLQQHLVDGRDMIIIRMPKTFPPFPQKLKFREPQREERICLVTTNFQTKSMSSMVSDTSCTFPSGDGIFWKHWIQTKDGQCGSPLVSTRDGFIVGIHSASNFTNTNNYFTSVPKNFMELLTNQEAQQWVSGWRLNADSVLWGGHKVFMVKPEEPFQPVKEATQL [D91T],area with substrate ENLYFQC,0.0794
same,area with substrate ENLYFQI,0.0642
same,area with substrate ENLYFQM,0.0794
same,area with substrate ENLYFQP,0.059
same,area with substrate ENLYFQS,0.0992
same,area with substrate ENLYFQT,0.0472
same,area with substrate ENLYFQW,0.0879
MGESLFKGPRDYNPISSSICHLTNESDGHTTSLYGIGFGPFIITNKHLFRRNNGTLVVQSLHGVFKVKDTTTLQQHLVDGRDMIIIRMPKDFPPFPQKLDFREPQREERICLVTTNFQTKSMSSMVSDTSCTFPSGDGIFWKHWIQTKDGQCGSPLVSTRDGFIVGIHSASNFTNTNNYFTSVPKNFMELLTNQEAQQWVSGWRLNADSVLWGGHKVFMVKPEEPFQPVKEATQL [K100D],area with substrate ENLYFQC,0.138
same,area with substrate ENLYFQF,0.072
same,area with substrate ENLYFQM,0.102
same,area with substrate ENLYFQN,0.074
same,area with substrate ENLYFQQ,0.0664
same,area with substrate ENLYFQR,0.0656
same,area with substrate ENLYFQS,0.102
same,area with substrate ENLYFQW,0.0716
same,area with substrate ENLYFQY,0.0665
MGESLFKGPRDYNPISSSICHLTNESDGHTTSLYGIGFGPFIITNKHLFRRNNGTLVVQSLHGVFKVKDTTTLQQHLVDGRDMIIIRMPKDVPPFPQKLKFREPQREERICLVTTNFQTKSMSSMVSDTSCTFPSGDGIFWKHWIQTKDGQCGSPLVSTRDGFIVGIHSASNFTNTNNYFTSVPKNFMELLTNQEAQQWVSGWRLNADSVLWGGHKVFMVKPEEPFQPVKEATQL [F92V],area with substrate ENLYFQC,0.0968
same,area with substrate ENLYFQF,0.0683
same,area with substrate ENLYFQG,0.0647
same,area with substrate ENLYFQH,0.0809
same,area with substrate ENLYFQI,0.0652
same,area with substrate ENLYFQM,0.101
same,area with substrate ENLYFQN,0.0789
same,area with substrate ENLYFQQ,0.0626
same,area with substrate ENLYFQR,0.0604
same,area with substrate ENLYFQS,0.0945
same,area with substrate ENLYFQV,0.0491
same,area with substrate ENLYFQW,0.0676
MGESLFKGPRDYNPISSSICHLTNESDGHTTSLYGIGFGPFIITNKHLFRRNNGTLVVQSLHGVFKVKDTTTLQQHLVDGRDLIIIRMPKDFPPFPQKLKFREPQREERICLVTTNFQTKSMSSMVSDTSCTFPSGDGIFWKHWIQTKDGQCGSPLVSTRDGFIVGIHSASNFTNTNNYFTSVPKNFMELLTNQEAQQWVSGWRLNADSVLWGGHKVFMVKPEEPFQPVKEATQL [M83L],area with substrate ENLYFQC,0.0736
same,area with substrate ENLYFQD,0.0828
same,area with substrate ENLYFQI,0.0617
same,area with substrate ENLYFQL,0.0468
same,area with substrate ENLYFQM,0.0933
same,area with substrate ENLYFQN,0.0736
same,area with substrate ENLYFQR,0.0753
same,area with substrate ENLYFQS,0.0959
same,area with substrate ENLYFQT,0.0398
same,area with substrate ENLYFQW,0.0621
MGESLFKGPRDYNPISSSICHLTNESDGHTTSLYGIGFGPFIITNKHLFRRNNGTLVVQSLHGVFKVKDTTTLQQHLVDGRDEIIIRMPKDFPPFPQKLKFREPQREERICLVTTNFQTKSMSSMVSDTSCTFPSGDGIFWKHWIQTKDGQCGSPLVSTRDGFIVGIHSASNFTNTNNYFTSVPKNFMELLTNQEAQQWVSGWRLNADSVLWGGHKVFMVKPEEPFQPVKEATQL [M83E],area with substrate ENLYFQC,0.0583
same,area with substrate ENLYFQD,0.0726
same,area with substrate ENLYFQG,0.0405
same,area with substrate ENLYFQI,0.061
same,area with substrate ENLYFQL,0.0527
same,area with substrate ENLYFQM,0.054
same,area with substrate ENLYFQR,0.0614
same,area with substrate ENLYFQS,0.0557
same,area with substrate ENLYFQV,0.0632
same,area with substrate ENLYFQW,0.0464
same,area with substrate ENLYFQY,0.0607
MGESLFKGPRDYNPISSSICHLTNESDGHTTSLYGIGFGPFIITNKHLFRRNNGTLVVQSLHGVFKVKDTTTLQQHLVDGADMIIIRMPKDFPPFPQKLKFREPQREERICLVTTNFQTKSMSSMVSDTSCTFPSGDGIFWKHWIQTKDGQCGSPLVSTRDGFIVGIHSASNFTNTNNYFTSVPKNFMELLTNQEAQQWVSGWRLNADSVLWGGHKVFMVKPEEPFQPVKEATQL [R81A],area with substrate ENLYFQC,0.086
same,area with substrate ENLYFQF,0.0643
same,area with substrate ENLYFQH,0.0795
same,area with substrate ENLYFQI,0.063
same,area with substrate ENLYFQK,0.062
same,area with substrate ENLYFQL,0.0606
same,area with substrate ENLYFQR,0.062
same,area with substrate ENLYFQS,0.0984
same,area with substrate ENLYFQT,0.0757
same,area with substrate ENLYFQV,0.0666
same,area with substrate ENLYFQW,0.0609
same,area with substrate ENLYFQY,0.0787
MGESLFKGPRDYNPISSSICHLTNESDGHTTSLYGIGFGPFIITNKHLFRRNNGTLVVQSLHGVFKVKDTTTLQQHLVDGRDMIIIRMPKDFDPFPQKLKFREPQREERICLVTTNFQTKSMSSMVSDTSCTFPSGDGIFWKHWIQTKDGQCGSPLVSTRDGFIVGIHSASNFTNTNNYFTSVPKNFMELLTNQEAQQWVSGWRLNADSVLWGGHKVFMVKPEEPFQPVKEATQL [P93D],area with substrate ENLYFQC,0.103
same,area with substrate ENLYFQF,0.0658
same,area with substrate ENLYFQG,0.0796
same,area with substrate ENLYFQI,0.0573
same,area with substrate ENLYFQL,0.0636
same,area with substrate ENLYFQM,0.0913
same,area with substrate ENLYFQN,0.0764
same,area with substrate ENLYFQQ,0.0726
same,area with substrate ENLYFQR,0.0564
same,area with substrate ENLYFQS,0.101
same,area with substrate ENLYFQW,0.0827
MGESLFKGPRDYNPISSSICHLTNESDGHTTSLYGIGFGPFIITNKHLFRRNNGTLVVQSLHGVFKVKDTTTLQQHLVDGRDMIIIRMPKDFLPFPQKLKFREPQREERICLVTTNFQTKSMSSMVSDTSCTFPSGDGIFWKHWIQTKDGQCGSPLVSTRDGFIVGIHSASNFTNTNNYFTSVPKNFMELLTNQEAQQWVSGWRLNADSVLWGGHKVFMVKPEEPFQPVKEATQL [P93L],area with substrate ENLYFQC,0.144
same,area with substrate ENLYFQF,0.0487
same,area with substrate ENLYFQL,0.0285
same,area with substrate ENLYFQM,0.107
same,area with substrate ENLYFQN,0.0818
same,area with substrate ENLYFQR,0.0585
same,area with substrate ENLYFQS,0.115
same,area with substrate ENLYFQT,0.0712
MGESLFKGPRDYNPISSSICHLTNESDGHTTSLYGIGFGPFIITNKHLFRRNNGTLVVQSLHGVFKVKDTTTLQQHLVDGRDMIIIRMPKDFWPFPQKLKFREPQREERICLVTTNFQTKSMSSMVSDTSCTFPSGDGIFWKHWIQTKDGQCGSPLVSTRDGFIVGIHSASNFTNTNNYFTSVPKNFMELLTNQEAQQWVSGWRLNADSVLWGGHKVFMVKPEEPFQPVKEATQL [P93W],area with substrate ENLYFQC,0.0852
same,area with substrate ENLYFQF,0.0958
same,area with substrate ENLYFQS,0.0936
MGESLFKGPRDYNPISSSICHLTNESDGHTTSLYGIGFGPFIITNKHLFRRNNGTLVVQSLHGVFKVKDTTTLQQHLVDGRDMIIIRMPKDFPNFPQKLKFREPQREERICLVTTNFQTKSMSSMVSDTSCTFPSGDGIFWKHWIQTKDGQCGSPLVSTRDGFIVGIHSASNFTNTNNYFTSVPKNFMELLTNQEAQQWVSGWRLNADSVLWGGHKVFMVKPEEPFQPVKEATQL [P94N],area with substrate ENLYFQC,0.133
same,area with substrate ENLYFQE,0.0471
same,area with substrate ENLYFQF,0.0743
same,area with substrate ENLYFQI,0.0404
same,area with substrate ENLYFQL,0.058
same,area with substrate ENLYFQN,0.0702
same,area with substrate ENLYFQP,0.0381
same,area with substrate ENLYFQR,0.0656
same,area with substrate ENLYFQS,0.103
same,area with substrate ENLYFQV,0.0771
